Assay results published in PubChem BioAssay AID1460 (National Center for Advancing Translational Sciences (NCATS), 2008).
Screen size: about 270,000 compounds; about 5,800 (2.1%) were called active. This list was built around the results that the source calls inconclusive (neither active nor inactive); the mix of calls is not that of the screen. The call rests on the fitted dose curve; in most records, active means well fitted inhibition curve with a large enough effect; inconclusive means small, poorly fitted or top-dose-only effect; inactive means flat fitted curve, though single readings scatter. A potency beside an inconclusive call is a rough fit, not a confirmed value.

biological target: Microtubule-associated protein tau (Homo sapiens) (UniProt P10636); assay: qHTS for Inhibitors of Tau Fibril Formation, Thioflavin T Binding; conditions: recombinant tau K18 P301L (four-repeat tau fragment), heparin-induced fibrillization, ThT fluorescence; series mostly up to 57.4 µM; further: nearly all actives have a fitted effect of over 55% in size
How it was run: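 Aggregation was driven by heparin (20 uM final) acting on recombinant tau […] bearing P301L in 100 mM sodium acetate pH 7; fibrils were detected with Thioflavin T.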
Potency means the concentration at half of the fitted maximal effect; tags describe the fitted curve by direction and shape.

UniProt P10636, sequence (P10636 whole entry, looked up, the tested form may be a part): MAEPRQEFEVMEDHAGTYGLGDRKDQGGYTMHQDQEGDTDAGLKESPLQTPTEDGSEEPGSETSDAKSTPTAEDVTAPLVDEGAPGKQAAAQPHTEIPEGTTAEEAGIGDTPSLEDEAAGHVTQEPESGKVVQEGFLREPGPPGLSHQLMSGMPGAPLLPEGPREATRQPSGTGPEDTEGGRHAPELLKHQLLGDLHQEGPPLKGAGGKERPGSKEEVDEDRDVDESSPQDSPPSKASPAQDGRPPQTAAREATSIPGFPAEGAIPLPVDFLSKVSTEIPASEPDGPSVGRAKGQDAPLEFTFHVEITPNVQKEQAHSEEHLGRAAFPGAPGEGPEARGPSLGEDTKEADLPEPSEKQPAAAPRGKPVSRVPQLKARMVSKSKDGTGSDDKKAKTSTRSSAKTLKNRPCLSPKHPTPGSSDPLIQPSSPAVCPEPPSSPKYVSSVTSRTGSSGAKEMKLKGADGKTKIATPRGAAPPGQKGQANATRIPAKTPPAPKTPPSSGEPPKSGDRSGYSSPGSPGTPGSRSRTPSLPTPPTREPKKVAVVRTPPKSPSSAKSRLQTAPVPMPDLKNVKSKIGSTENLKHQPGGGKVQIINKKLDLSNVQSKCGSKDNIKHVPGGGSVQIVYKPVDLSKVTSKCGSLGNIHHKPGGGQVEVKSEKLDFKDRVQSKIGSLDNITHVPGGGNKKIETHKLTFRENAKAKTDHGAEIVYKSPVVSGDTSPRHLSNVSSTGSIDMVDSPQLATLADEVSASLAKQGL

Row | Compound | Potency
1 | CCOC(=O)C(C(C)=O)=C1SC2CS(=O)(=O)CC2S1 (stereo unspecified) | inconclusive: 22.4 µM [inhibitor, single point]
2 | Cc1ccc(-c2nn(-c3ccccc3)cc2/C=N/NC(=O)CSc2nnc(C)n2-c2ccccc2)cc1 | inconclusive: 17.8 µM [inhibitor, partial curve, poor fit]
3 | CCN(CC)c1ccc(NC(=O)c2cnc3ccccn3c2=O)c(C)c1 | inconclusive: 2.24 µM [inhibitor, full curve]
4 | CCC1=NN(C(=O)Cc2ccc(OC)c(OC)c2)C(O)(C(F)(F)F)C1 (stereo unspecified) | inactive
5 | O=c1[nH]c2ccc([N+](=O)[O-])cc2nc1/C=C(\O)c1ccccc1 | inconclusive: 2.82 µM [inhibitor, partial curve]
6 | COc1ccc(N2CC(C(=O)OCC(=O)c3ccc(C)cc3)CC2=O)cc1 (stereo unspecified) | inconclusive: 5.01 µM [inhibitor, partial curve]
7 | COc1ccccc1-n1c(=O)oc2ccc(Cl)cc2c1=O | inconclusive: 11.2 µM [inhibitor, partial curve]
8 | CCC(=O)Nc1cc2nn(-c3ccc(C)cc3)nc2cc1C | inactive
9 | N#C/C(=C/c1cccs1)c1nc2ccccc2[nH]1 | inactive
10 | CC(C)NC(=O)CSc1nc(Cc2cccs2)nc2ccccc12 | inconclusive: 39.8 µM [inhibitor, single point]
11 | O=C(CSC1=NCCS1)Nc1nc2c(s1)CCCC2 | inconclusive: 25.1 µM [inhibitor, single point]
12 | COc1ccc(CC(=O)Nc2cccc(-c3nnc(-c4ccco4)o3)c2)cc1 | inconclusive: 11.2 µM [inhibitor, partial curve]
13 | Cc1ccccc1-n1c(=O)/c(=C\c2ccco2)s/c1=C(/C#N)C(=O)Nc1ccccc1 | active: 15.8 µM
14 | CCOC(=O)Cn1c(=O)n(CC2CCCO2)c2nc(-c3c(F)cccc3Cl)nc(C(N)=O)c21 (stereo unspecified) | inactive
15 | COc1ccccc1/C=C/C(=O)NCC(=O)N/N=C/c1ccc2c(c1)OCO2 | inconclusive: 31.6 µM [inhibitor, partial curve, poor fit]
16 | CC(=O)Oc1ccc(-c2csc(Nc3ccc(S(N)(=O)=O)cc3)n2)cc1 | inactive
17 | O=C(c1ccccc1Oc1ccccc1)N1CCN(c2ccccc2)CC1 | inconclusive: 28.2 µM [inhibitor, single point]
18 | c1ccc(C2=NN(c3ccccc3)CC2)cc1 | inconclusive: 22.4 µM [inhibitor, partial curve]
19 | COCCNC(=O)CSc1nnc2[nH]c(=O)cc(C)n12 | inactive
20 | Cc1cc(N)c2ccccc2[n+]1CCCCCCCCCCCCCC[n+]1c(C)cc(N)c2ccccc21 | inconclusive: 2 µM [inhibitor, full curve]
21 | CCOC(=O)c1c(NC(=O)CSc2nnc(-c3ccccc3C)n2C)sc(C(C)=O)c1C | inconclusive: 35.5 µM [inhibitor, single point]
22 | Cc1noc(Cn2c(=O)c3ccccc3n(CC(=O)Nc3ccc(C(C)C)cc3)c2=O)n1 | inactive
23 | O=C(COC(=O)CCCc1nc2ccccc2s1)Nc1ncc(Cl)cc1Cl | inconclusive: 22.4 µM [inhibitor, single point]

Row | Compound | Potency
24 | Cc1onc(-c2c(Cl)cccc2Cl)c1C(=O)O/N=C(\C#N)c1ccccc1 | inconclusive: 31.6 µM [inhibitor, partial curve]
25 | CCCn1c(-c2ccc(F)cc2)nc2c(NCC(C)(C)CN(C)C)nc(C)nc21 | inactive
26 | O=C(Cc1ccccc1)N1CCN=C1SCc1ccc([N+](=O)[O-])cc1 | inconclusive: 39.8 µM [inhibitor, single point]
27 | O=C(Oc1ccc(-n2cnnn2)cc1)c1ccccc1 | inactive
28 | COc1ccccc1NC(=O)CCS(=O)(=O)c1ccccc1 | inactive
29 | COc1ccc(C(=O)CSc2n[nH]c(-c3ccco3)n2)cc1 | inconclusive: 28.2 µM [inhibitor, partial curve]
30 | Cc1ccccc1Cn1c(C(=O)OC(C)C)cc2c1ccn2C | inconclusive: 31.6 µM [inhibitor, single point]
31 | O=C(NCCN1CCOCC1)c1cc2sccc2n1Cc1ccc(Cl)cc1 | inactive
32 | Cc1onc(-c2ccccc2Cl)c1C(=O)Nc1nnc(-c2ccc(Cl)cc2Cl)s1 | inconclusive: 10 µM [inhibitor, partial curve]
33 | Cc1cc(C)c2nc(N3CCC(C(=O)NCc4ccccn4)CC3)sc2c1 | inconclusive: 20 µM [inhibitor, partial curve]
34 | CC(=O)Oc1cccc(N2C(=O)CC(Nc3ccc(N4CCOCC4)cc3)C2=O)c1 (stereo unspecified) | active: 15.8 µM
35 | CCCCC1CCC(CCCC(C)CCC(=O)O)CC1 (stereo unspecified) | inconclusive: 22.4 µM [inhibitor, partial curve, poor fit]
36 | Cc1ccc(OCC(=O)NC(=S)Nc2ccc(Br)cn2)cc1C | inconclusive: 2.82 µM [inhibitor, full curve]
37 | COc1ccccc1CNC(=O)CSc1ccsc1[N+](=O)[O-] | inconclusive: 15.8 µM [inhibitor, partial curve]
38 | Cc1cccc(NC(=S)N/N=C/c2cccc(O)c2)c1C | inactive
39 | COc1ccc(-n2cc(-c3ccc4c(c3)OCO4)n(CC(=O)Nc3cccc(C)c3)c2=O)cc1 | inconclusive: 10 µM [inhibitor, partial curve]
40 | CCCn1c2ccccc2c2nnc(SC(CC)C(=O)Nc3cc(C)on3)nc21 (stereo unspecified) | inactive
41 | Cc1c(C(=O)N(C)C)sc2c1c(=O)n(-c1ccc(Cl)c(Cl)c1)c(=O)n2CC(=O)Nc1ccc(Br)cc1F | inconclusive: 10 µM [inhibitor, partial curve]
42 | O=C(COc1ccccc1)N1N=C(c2cccnc2)CC1(O)C(F)(F)F (stereo unspecified) | inactive
43 | COC(=O)CCSc1cc(NCCOC(C)=O)c([N+](=O)[O-])c2nonc12 | active: 11.2 µM
44 | CCc1cc2ccccc2nc1SCC(=O)N1CCN(C(=O)c2ccco2)CC1 | inconclusive: 31.6 µM [inhibitor, single point]
45 | CCOc1ccc(NC(=O)CN(C)S(=O)(=O)c2cccs2)cc1 | inactive
46 | O=C1N=c2ccccc2=C1c1sc(=S)n(NC(=O)c2cccc(O)c2)c1O | inconclusive: 31.6 µM [inhibitor, partial curve]
